The whole screen tested about 370,000 compounds, of which about 150 (0.041%) were called active. Inconclusive means that the source gave no clear call. Such entries were picked first, then a sample of the others. Calls follow the shape of the dose curve; as a rule, active = well fitted inhibition curve with a large enough effect; inconclusive = small, poorly fitted or top-dose-only effect; inactive = flat fitted curve, though single readings scatter. Potencies of inconclusive entries are left out as doubtful fits.
What follows are compounds tested against Beta-lactamase (Escherichia coli (strain K12)) (UniProt P00811) (assay: qHTS Inhibitors of AmpC Beta-Lactamase (assay with detergent)). Settings: AmpC hydrolysis of nitrocefin, absorbance 480 nm, 0.01% Triton; series mostly up to 114 µM.
Sequence of UniProt P00811 (P00811 whole entry, looked up): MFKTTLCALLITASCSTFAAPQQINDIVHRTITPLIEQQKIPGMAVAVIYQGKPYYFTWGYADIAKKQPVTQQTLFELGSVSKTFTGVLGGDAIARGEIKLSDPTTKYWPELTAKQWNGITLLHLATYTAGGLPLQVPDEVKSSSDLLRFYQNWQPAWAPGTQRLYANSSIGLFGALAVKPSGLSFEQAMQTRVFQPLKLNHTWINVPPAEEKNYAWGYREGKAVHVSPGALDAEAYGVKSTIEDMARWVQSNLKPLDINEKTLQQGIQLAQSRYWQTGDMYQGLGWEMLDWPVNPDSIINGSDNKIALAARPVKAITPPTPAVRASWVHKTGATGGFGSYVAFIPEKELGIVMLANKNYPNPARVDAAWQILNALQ
Procedure, shortened: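 AmpC (5.3 nM in the dispensed reagent) in 20 mM phosphate pH 7.0 with 0.01% (detergent screen) or 0.0001% Triton X-100 was preincubated with compounds for 15 min at room temperature. Nitrocefin was then added from an 800 uM solution, and hydrolysis was followed at 480 nm.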
In the case of `Cc1cc([N+](=O)[O-])cnc1Sc1nccn1C`, the Potency is reported as inconclusive [inhibitor, single point]. For `COc1ccc(C(=O)N2CCOC2CNC(=O)C(=O)NCc2ccc(F)cc2)cc1` (centres undefined), the Potency was inconclusive [inhibitor, single point]. With `CCOc1ccccc1C(=O)NCC(=O)OCC(=O)N1C(C)CCCC1C` (centres undefined) the Potency was inconclusive [inhibitor, partial curve, poor fit]. With `Cc1cc(C(=O)O/N=C(\N)c2ccncc2)ccc1[N+](=O)[O-]` the Potency was “inactive”. In the case of `O=S1(=O)CCC(NC(=S)Nc2ccc3ccccc3c2)C1` (centres undefined), the Potency is reported as “inactive”. For `O=C1CC(=C(c2ccccc2)c2ccccc2)C(=O)N1CCN1CCN(c2cccc(Cl)c2)CC1`, the Potency was inconclusive [inhibitor, single point]. In the case of `Cc1ccccc1N(C(=O)CCC(=O)Nc1ccccn1)C(C(=O)NC(C)C)c1ccc(O)cc1` (centres undefined), the Potency is reported as inconclusive [inhibitor, partial curve, poor fit]. `COc1ccc(CCN2C(=O)N(c3cccc(C)c3)C(=O)C2CC(=O)Nc2ccccc2)cc1OC` (centres undefined) was tested, and the Potency was “inactive”. `CCOC(=O)c1[nH]c(=O)[nH]c1CSc1nc(C)cc(C)n1` was tested, and the Potency was “inactive”. `CC(C)CC(=O)/C(=C/c1ccc(N(C)C)cc1)n1cncn1` was tested, and the Potency was “inactive”. For `Cc1ccccc1Cn1c(-c2cncs2)nc2ccccc21`, the Potency was “inactive”. For `Cc1ccc(-c2nc(S(=O)(=O)c3ccc(C)cc3)c(SCC(N)=O)o2)cc1`, the Potency was “inactive”. With `CCOc1cc(NC(=O)CCl)c(OCC)cc1NC(=O)CCl` the Potency was “inactive”. In the case of `COc1ccccc1NC(=O)c1ccc(NS(=O)(=O)c2cccc3cccnc23)cc1`, the Potency is reported as “inactive”. In the case of `CN1C(=O)C(O)N=C(c2ccccc2)c2ccccc21` (centres undefined), the Potency is reported as “inactive”. For `CC(=O)c1ccc(Nc2cc(C)nc3nc(C)nn23)cc1`, the Potency was inconclusive [inhibitor, partial curve]. `Cc1ccc(CNC(=O)CCn2cc(-c3ccc(C)cc3)nc2-c2ccncc2)cc1` was tested, and the Potency was inconclusive [inhibitor, partial curve, poor fit]. `CCc1ccccc1NC(=O)c1cn(C)c(=O)c2ccccc12` was tested, and the Potency was inconclusive [inhibitor, single point]. `O=C(NNC(=O)c1sccc1-n1cccc1)Nc1ccc(F)cc1` was tested, and the Potency was inconclusive [inhibitor, full curve]. For `CC(=O)Nc1ccc(NC(=O)CSc2ncnc3sc(C)c(C)c23)cc1`, the Potency was inconclusive [inhibitor, full curve]. With `CCOC(=O)c1c(NC(=O)CN2C(=O)NC3(CCC(C)CC3)C2=O)sc(C)c1CC` (centres undefined) the Potency was inconclusive [inhibitor, partial curve, poor fit]. `O=C(Nc1ccc2c(c1)OCO2)C1CC(c2ccc(Cl)cc2)=NO1` (centres undefined) was tested, and the Potency was inconclusive [inhibitor, single point]. With `COc1ccc(N2CC(NS(=O)(=O)c3cccnc3)CC2=O)cc1` (centres undefined) the Potency was inconclusive [inhibitor, full curve, poor fit]. In the case of `Cc1ccc(CNC(=O)Nc2ccccc2)cc1`, the Potency is reported as “inactive”. In the case of `Cc1cccc(N(Cc2ccccc2)C(=O)c2ccc(F)c(S(=O)(=O)N3CCOCC3)c2)c1`, the Potency is reported as inconclusive [inhibitor, single point]. `Cc1ccc(OC(C)C(=O)N2CCCc3ccccc32)cc1` (centres undefined) was tested, and the Potency was inconclusive [inhibitor, single point]. For `O=C(Nc1cccc(-c2csc(Nc3cccc(C(F)(F)F)c3)n2)c1)c1cc([N+](=O)[O-])cc(C(F)(F)F)c1`, the Potency was “inactive”. `CS(=O)(=O)N(CC(=O)N1CCCC1)c1ccccc1Br` was tested, and the Potency was inconclusive [inhibitor, partial curve, poor fit]. In the case of `CN(C)c1nc(N)nc(CSc2n[nH]c(-c3ccccc3)n2)n1`, the Potency is reported as inconclusive [inhibitor, full curve, poor fit]. For `CCOCCCNC(=O)c1cc(=O)n(Cc2cccc(C)c2)c2ccccc12`, the Potency was “inactive”. In the case of `CCOC(=O)c1c(/N=C/c2c(O)n(-c3ccccc3F)c(=S)[nH]c2=O)sc2c1CCCC2`, the Potency is reported as inconclusive [inhibitor, single point]. `CCN1CCN(CC(O)COc2ccc(C(C)=O)cc2)CC1` (centres undefined) was tested, and the Potency was inconclusive [inhibitor, full curve, poor fit]. `CC(C)CC(=O)NCC(c1ccc2c(c1)OCO2)N1CCN(c2ccccc2)CC1` (centres undefined) was tested, and the Potency was “inactive”. In the case of `CCC(=O)c1ccc(OCC(=O)c2ccc3c(c2)NC(=O)CO3)cc1`, the Potency is reported as “inactive”. For `CSCCC(NC(=O)c1ccc(Cl)cc1)C(=O)OCC(=O)c1ccc[nH]1` (centres undefined), the Potency was inconclusive [inhibitor, full curve, poor fit]. With `O=C(NC1CCCCC1)C1CCN(S(=O)(=O)c2cccs2)CC1` the Potency was inconclusive [inhibitor, full curve, poor fit]. In the case of `CC(C)(C)c1ccc(O)c(N=Cc2cc3c(cc2[N+](=O)[O-])OCO3)c1`, the Potency is reported as “inactive”. For `Cc1ccc2oc(C(=O)N(C)CCC(O)c3ccccc3)c(C)c2c1` (centres undefined), the Potency was inconclusive [inhibitor, full curve, poor fit]. For `COc1ccc(NC(=O)c2ccco2)cc1NC(=O)c1cc(Cl)ccc1OC`, the Potency was “inactive”. In the case of `CCOc1cc(N2CCOCC2)c(OCC)cc1NC(=O)c1cc(C)cc(C)c1`, the Potency is reported as “inactive”. `CCCN(CC(=O)Nc1cc(Cl)ccc1Cl)C(=O)c1ccc(N2CCCC2=O)cc1` was tested, and the Potency was inconclusive [inhibitor, full curve, poor fit]. With `O=C(c1cc2cc(Br)cc(Br)c2oc1=O)N1CCCc2ccccc21` the Potency was inconclusive [inhibitor, full curve]. For `O=C(c1ccc(F)cc1)C1CCN(C(=O)NCc2ccccc2)CC1`, the Potency was inconclusive [inhibitor, partial curve, poor fit]. In the case of `Cc1ccc(-n2cccc2/C=C2/NC(=O)N(CC(=O)Nc3cccc(C)c3)C2=O)cc1`, the Potency is reported as inconclusive [inhibitor, full curve, poor fit]. In the case of `Cc1cc(NC(=O)CCN2C(=O)/C(=C\c3ccccc3Cl)SC2=S)no1`, the Potency is reported as “inactive”. With `c1ccc(CC2CCN(c3ncnc4sccc34)CC2)cc1` the Potency was “inactive”. `COc1ccc(/C=C2\SC(=S)N(CCC(=O)NCCc3ccc(O)cc3)C2=O)cc1` was tested, and the Potency was inconclusive [inhibitor, full curve, poor fit]. In the case of `COc1ccc(CCNC(=O)C2CCN(S(=O)(=O)c3cnc[nH]3)CC2)cc1OC`, the Potency is reported as “inactive”. `COc1ccc(OC)c(C(=O)NC(CC(N)=O)c2ccc(N3CCC(N4CCCCC4)CC3)c([N+](=O)[O-])c2)c1` (centres undefined) was tested, and the Potency was inconclusive [inhibitor, full curve, poor fit]. `CCN(CC)CCNC(=O)Cc1c(C(=O)O)n(C)c2ccccc12` was tested, and the Potency was inconclusive [inhibitor, single point]. For `CCN1CCN(Cc2ccc(NC(=O)c3ccc(C)c(/C=C/c4cnc(Nc5cc(N6CCNCC6)nc(C)n5)cn4)c3)cc2C(F)(F)F)CC1`, the Potency was “inactive”. `CCOC(=O)c1ccccc1NC(=O)CC(C)CC(=O)O` (centres undefined) was tested, and the Potency was inconclusive [inhibitor, full curve, poor fit]. `COc1ccc(CNC(=O)Cc2cccs2)cc1OC` was tested, and the Potency was “inactive”. In the case of `Cc1c(C(=O)OCC(=O)N2CC(C)CC(C)C2)oc2ccccc12` (centres undefined), the Potency is reported as inconclusive [inhibitor, full curve, poor fit]. For `CCOC(=O)c1cc(S(=O)(=O)NCc2ccc(Cl)cc2)[nH]n1`, the Potency was “inactive”. For `C=CCN1CC(c2nc3ccccc3n2Cc2ccccc2)CC1=O` (centres undefined), the Potency was inconclusive [inhibitor, partial curve, poor fit]. With `C/C(=N\Nc1nc(C)cc(-c2ccccc2)n1)c1cccc(N)c1` the Potency was inconclusive [inhibitor, full curve, poor fit]. With `CC(C)(C)NCCOCCOc1ccc(Cl)cc1C(C)(C)C` the Potency was inconclusive [inhibitor, single point]. `Cc1ccc(S(=O)(=O)Nc2nnc(CC(C)(C)C)s2)cc1` was tested, and the Potency was inconclusive [inhibitor, full curve, poor fit]. `Oc1[nH]c2ccccc2c1C1=NCCCC1` was tested, and the Potency was inconclusive [inhibitor, partial curve]. `O=C(NC12CC3CC(CC(C3)C1)C2)c1cc(F)c(F)cc1Cl` was tested, and the Potency was inconclusive [inhibitor, full curve, poor fit]. For `O=C(Nc1ccc(Cl)cn1)C1CCCN1S(=O)(=O)c1cccc2ccccc12` (centres undefined), the Potency was inconclusive [inhibitor, full curve]. `O=c1c2cc3c(cc2nc2sc(Nc4cccc([N+](=O)[O-])c4)nn12)OCO3` was tested, and the Potency was “inactive”. `N#Cc1ccccc1NC(=O)CSc1nnc(-c2ccc(F)cc2)n1-c1ccccc1` was tested, and the Potency was inconclusive [inhibitor, full curve, poor fit]. `CCOC(=O)c1c(NC(=O)c2ccc(OCC)c(Br)c2)sc2c1CCCC2` was tested, and the Potency was “inactive”. `COc1cccc2[nH]c3c(N4CCCC(C)C4)ncnc3c12` (centres undefined) was tested, and the Potency was inconclusive [inhibitor, partial curve, poor fit]. For `O=S(=O)(Nc1cccc2c1CCCC2)c1ccc(Cl)cc1`, the Potency was inconclusive [inhibitor, full curve, poor fit]. For `O=C(CNC(=O)c1ccccc1Cl)N/N=C/c1ccc([N+](=O)[O-])s1`, the Potency was inconclusive [inhibitor, full curve, poor fit]. In the case of `O=C1CC(N2CCC(c3nc4ccccc4o3)CC2)C(=O)N1Cc1cccs1` (centres undefined), the Potency is reported as inconclusive [inhibitor, full curve, poor fit].

— PubChem BioAssay AID485294 (National Center for Advancing Translational Sciences (NCATS), 2010)
Also: nearly all actives have a fitted effect of over 25% in size.
Potency is read from the fitted curve at half-maximal effect; tags tell the direction and shape of the fitted curve.
